# Measured values taken from PMC4336329 (PLoS ONE, 2015).
# Among all 310,000 compounds or so, about 14,000 (4.5%) showed an effect of 50% or more. The effect is printed as a negative number. The list shows a part of the results.
# Target: human ether-à-go-go-related gene (hERG) potassium channel (human, UniProt Q12809)
# Test: primary screen, population patch clamp on CHO cells stably expressing hERG
# 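Further: peak tail current of the secondary pulse compared with the same well before compound.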
# human ether-à-go-go-related gene (hERG) potassium channel, sequence (Q12809 whole entry, looked up): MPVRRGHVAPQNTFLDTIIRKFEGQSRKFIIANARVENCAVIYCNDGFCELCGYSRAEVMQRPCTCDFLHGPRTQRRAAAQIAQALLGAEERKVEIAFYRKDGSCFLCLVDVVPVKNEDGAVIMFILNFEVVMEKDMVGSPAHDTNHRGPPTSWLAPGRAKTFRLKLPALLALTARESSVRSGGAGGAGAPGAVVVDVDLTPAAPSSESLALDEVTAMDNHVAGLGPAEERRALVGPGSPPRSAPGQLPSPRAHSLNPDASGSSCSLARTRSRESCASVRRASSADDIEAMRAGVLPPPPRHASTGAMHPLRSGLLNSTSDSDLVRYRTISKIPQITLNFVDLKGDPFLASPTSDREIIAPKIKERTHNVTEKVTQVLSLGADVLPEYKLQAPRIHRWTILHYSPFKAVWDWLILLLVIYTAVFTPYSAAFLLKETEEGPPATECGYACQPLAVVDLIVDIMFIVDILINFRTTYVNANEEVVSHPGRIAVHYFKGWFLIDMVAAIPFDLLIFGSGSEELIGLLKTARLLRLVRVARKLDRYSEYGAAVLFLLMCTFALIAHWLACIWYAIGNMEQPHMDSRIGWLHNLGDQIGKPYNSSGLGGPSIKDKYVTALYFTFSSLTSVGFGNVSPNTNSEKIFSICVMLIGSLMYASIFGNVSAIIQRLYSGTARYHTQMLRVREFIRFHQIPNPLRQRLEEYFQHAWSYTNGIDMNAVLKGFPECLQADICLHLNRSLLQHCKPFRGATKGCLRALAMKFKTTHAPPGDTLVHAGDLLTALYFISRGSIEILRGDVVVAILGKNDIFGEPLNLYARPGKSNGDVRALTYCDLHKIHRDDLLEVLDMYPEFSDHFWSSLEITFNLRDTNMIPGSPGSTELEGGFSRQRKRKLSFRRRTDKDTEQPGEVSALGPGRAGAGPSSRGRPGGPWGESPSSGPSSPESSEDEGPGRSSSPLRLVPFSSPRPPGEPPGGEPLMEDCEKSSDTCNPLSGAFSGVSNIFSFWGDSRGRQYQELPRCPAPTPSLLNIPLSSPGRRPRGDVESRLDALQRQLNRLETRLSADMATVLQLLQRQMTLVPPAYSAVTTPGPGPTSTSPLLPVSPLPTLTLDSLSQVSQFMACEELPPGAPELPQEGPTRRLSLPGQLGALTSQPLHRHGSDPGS
row,Structure (SMILES),"hERG current change (%, negative = inhibition) at 10uM"
1,Cc1cc(C(=O)Nc2ccc(C)c(S(=O)(=O)N3CCOCC3)c2)c2ccccc2n1,-13.6%
2,C/C(Cc1ccccc1)=N\NC(=O)CNC(=O)c1ccc(F)cc1,8.96%
3,CCOC(=O)/C=C1\SCC(=O)N1CC(=O)Nc1ccc(OC)c(OC)c1,7.5%
4,COc1ccc(Br)cc1CNC(=O)C1CCCN(S(=O)(=O)N2CC(C)CC(C)C2)C1 (stereo not drawn),13.8%
5,CCCCCOc1ccc(/C=C/c2c([N+](=O)[O-])c(=O)n(C)c(=O)n2C)cc1,9.47%
6,COC(=O)c1ccc(Oc2c(C(F)(F)F)oc3c(CN4CCN(C)CC4)c(O)ccc3c2=O)cc1,14.3%
7,CCSCCOC(=O)C1=C(C)N(C)C(=O)NC1c1ccc2c(c1)OCO2 (stereo not drawn),5.29%
8,Cn1c(CO)cnc1S(=O)(=O)Cc1ccc([N+](=O)[O-])cc1,7.66%
9,COc1ccc(OC)c(NC(=O)CC(NC(C)=O)c2ccccc2)c1 (stereo not drawn),17.6%
10,COc1ccccc1C(=O)Nc1ccnn1C1CCN(C(=O)C(C)(C)C)CC1,-50.4%
11,COc1ccccc1OCCCCN1CCN(C(c2ccccc2)c2ccccc2)CC1.O=C(O)C(=O)O,-73%
12,O=C(COc1ncnc2sccc12)Nc1cccc(S(=O)(=O)N2CCOCC2)c1,-2.77%
13,CC(=O)c1cccc(N(CC(=O)NC2CCCCC2)C(=O)CCC(=O)Nc2nc(C)cs2)c1,-8.84%
14,CCOC(=O)c1oc2ccccc2c1NC(=O)c1ccccc1OC,16.6%
15,CN(Cc1nc2ccccc2n1C)C(=O)c1cccs1,-8.67%
16,Cc1ccc2cc(NC(=O)c3ccccc3C)ccc2n1,11.3%
17,Cc1ccc(-c2csc3ncnc(NCCN4CCOCC4)c23)cc1,-15.6%
18,CNC(=O)/C(C#N)=C\c1ccc(CNS(=O)(=O)c2ccccc2)o1,-1.95%
19,CN(Cc1ccccc1)C(=O)CC(=O)N(C)Cc1ccccc1,-3.79%
20,Cc1ccc(S(=O)(=O)N2CCN(C(=O)CSc3nc4ccccc4c(=O)[nH]3)CC2)cc1,-1.1%
21,CC(=O)OC[C@H]1O[C@@H](Sc2cccc3cccnc23)[C@H](OC(C)=O)[C@@H](OC(C)=O)[C@H]1OC(C)=O,-2.95%
22,O=C(O)CCSc1nc2ccccc2s1,6.98%

row,Structure (SMILES),"hERG current change (%, negative = inhibition) at 10uM"
1,CCN(CC)S(=O)(=O)c1ccc(NC(=O)Nc2cccc(C(F)(F)F)c2)cc1,-2.49%
2,O=C(Nc1ccccc1)N1CC2CC(C1)c1cccc(=O)n1C2 (stereo not drawn),9.11%
3,O=C(N/N=C/C(Cl)=C/c1ccccc1)c1ccccn1,-36.2%
4,CCCCON1C(=O)c2cccc3cccc(c23)C1=O,-4.38%
5,CCOCCCNC(=O)CN1C(=O)NC(Cc2c[nH]c3ccccc23)C1=O (stereo not drawn),-23.7%
6,COc1ccc(C2CC(C)=C(C#N)S(=O)(=O)C2C#N)cc1 (stereo not drawn),9.95%
7,COc1ccc(Cl)cc1NC(=O)Nc1ccccc1SC,5.83%
8,CC(=C/c1ccco1)/C=N/NC(=O)CSc1nnc(SCc2ccc(C)cc2)s1,-3.37%
9,Cc1ccc(CN2CCSc3ccc(C(=O)NC4CCCC4)cc32)cc1,-22.7%
10,CC(=O)NS(=O)(=O)c1cccnc1Nc1ccc(Cl)cc1,17.1%
11,O=C(N/N=C/c1cccc2ccccc12)c1cccnc1,1.76%
12,O=C(Nc1nccs1)c1sc2cc(Cl)ccc2c1Cl,4.37%
13,COc1ccc(NC(=O)CCn2ccnc2)c(OC)c1,23.2%
14,Cc1cc(-c2nnc(CCC(=O)NC(C)(C)C34CC5CC(CC(C5)C3)C4)o2)no1,-2.16%
15,COc1cc(=O)[nH]c(SC(C)C(=O)Nc2cc(C)on2)n1 (stereo not drawn),14.4%
16,O=C(c1cc(-c2ccncc2)nc2ccc(Br)cc12)N1CCN(Cc2ccc3c(c2)OCO3)CC1,-56.5%
17,CC(C)CCn1c(CN2CCN(Cc3ccccc3)CC2)nc2c1c(=O)[nH]c(=O)n2C,-17.6%
18,COc1ccc(NC(=O)COCC(=O)Nc2ccc(C)cc2)cc1,-8.56%
19,CC(C)NS(=O)(=O)c1ccc(NC(=S)NC(=O)c2ccc(-c3ccccc3)cc2)cc1,-6%
20,COCCCNC(=S)Nc1ccc(OC(F)F)cc1C,7.74%
21,Cn1ncc(C#N)c1NC(=O)c1nn2cccnc2c1Cl,10.5%
22,COCCN(C(=O)c1snc(C(N)=O)c1N)C(C(=O)NC1CCCCC1)c1ccc(OC)c(OC)c1 (stereo not drawn),9.67%

row,Structure (SMILES),"hERG current change (%, negative = inhibition) at 10uM"
1,CCCS(=O)(=O)c1c(S(=O)(=O)CCC)c2ccc(C(N)=O)cn2c1C(=O)c1ccc(F)cc1,15.2%
2,Cl.O=C(O)C1=CCCNC1,-54.4%
3,O=C(N/N=C/c1ccncc1)C1CC1C(=O)N/N=C/c1ccncc1 (stereo not drawn),21%
4,C=CCn1c(O)c(C(CC)=NCCC2=CCCCC2)c(=O)[nH]c1=O,-13.6%
5,COc1ccc(-c2cc(-c3ccccc3)c(C#N)c(SCC(=O)O)n2)cc1,16.7%
6,Cc1ccc(F)cc1NC(=O)c1sc2ncn(CC(=O)N3CCN(c4ccccn4)CC3)c(=O)c2c1C,-5.06%
7,Cc1ccc(C(=O)OCC(=O)NNC(=O)c2ccccc2)c(O)c1,-30.6%
8,CC(C)C(=O)Nc1ccc(-c2nc3ccccc3c(=O)o2)cc1,26.9%
9,CN(CC(=O)Nc1ccccc1C(F)(F)F)C(=O)CSCc1ccc(Cl)c(Cl)c1,18.5%
10,CCN(CC)c1ccc(NC(=O)/C=C/c2cc(Br)ccc2OC)cc1,4.29%
11,CCN(CC)c1ccc2c(Cl)cc(=O)oc2c1,-31.2%
12,CCOC(=O)c1cnc(SCC(=O)Nc2ccccc2C(=O)OC)nc1N,-13.1%
13,CCCCC(CC)CNC(=O)CCS(=O)(=O)c1cccc2nonc12 (stereo not drawn),-6.68%
14,Cc1cc(C)c(S(=O)(=O)c2c(C)cccc2C)c(Cl)n1,0.573%
15,Cc1ccccc1OCC(=O)NC(=S)Nc1ccc(Br)c(C)n1,18%
16,CCN(CC)C(=O)C12CC3CC(CC(Br)(C3)C1)C2,7.03%
17,COc1cc(-c2nnc(COC(=O)CSCC(=O)Nc3cc(C)on3)o2)cc(OC)c1OC,1.78%
18,CN(C)C(=O)c1ccc(NC(=O)CSc2nnc(-c3cccs3)n2N)cc1,-2.53%
19,CCOc1ccccc1C(=O)Nc1cccc2cccnc12,10.6%
20,CCC1S/C(=N/N=C/c2ccco2)N(Cc2ccccc2C)C1=O (stereo not drawn),0.654%
21,COc1cccc2c1Oc1ncccc1N(C(=O)CCC(=O)NCc1ccc(C)cc1)C2,-34.4%
22,COc1ccc(-n2c3c(cc(C(=O)N4CCN(CCO)CC4)c2=O)C(=O)CC(C)(C)C3)cc1,-3.89%

row,Structure (SMILES),"hERG current change (%, negative = inhibition) at 10uM"
1,CSc1ccccc1NC(=O)c1ccc(N2CC3CC(C2)c2cccc(=O)n2C3)c(NC(=O)c2cccnc2)c1 (stereo not drawn),-30.6%
2,CC(C)(/C=N/NC(=O)CSCc1ccc(Cl)cc1)CCC#N,-15.5%
3,O=C(CN(CCO)c1ccccc1)Nc1cccc(S(=O)(=O)N2CCCC2)c1,6.01%
4,O=C(O)/C=C/c1ccccc1[N+](=O)[O-],9.87%
5,COc1ccccc1OC(C)C(=O)O (stereo not drawn),3.54%
6,FC(F)(F)c1cccc(Cc2noc(CN3CCC(c4ccncc4)CC3)n2)c1,-66.2%
7,CC(C)=CCN1CCN(Cc2ccc3nsnc3c2)CC1CCO (stereo not drawn),-19.4%
8,COC(=O)c1cc(Br)c(=O)n(-c2nccs2)c1,-5.98%
9,Cc1ccc(-c2nc3ncccc3o2)cc1NC(=O)c1ccc([N+](=O)[O-])o1,-35.5%
10,O=C(CSc1nnc2ncccn12)Nc1cccc2ccccc12,5.09%
11,COC(=O)c1cc(-c2cccs2)[nH]n1,17%
12,CCOc1cc(S(=O)(=O)NC2CC(C)(C)NC(C)(C)C2)ccc1F,-9.91%
13,O=C(Nc1cc(C(F)(F)F)ccc1-n1cncn1)c1ccc(Cl)cc1,-3.01%
14,CCOc1ccc(/C=C/C(=O)Oc2ccccc2)cc1,23.1%
15,Cc1ccc(N(CCCCN2C(=O)c3ccccc3C2=O)C(=O)c2cccc([N+](=O)[O-])c2)cc1,-59.5%
16,COc1ccc(C(NC(=O)c2ccc(-c3ccccc3)cc2)c2ccccc2)cc1 (stereo not drawn),7.97%
17,COc1cc(NC(=O)CC(C)S(=O)(=O)c2ccc3c(c2)NC(=O)CO3)cc(OC)c1OC (stereo not drawn),7.63%
18,CCNS(=O)(=O)c1ccc(CCC(=O)NCc2cccnc2)cc1,16.8%
19,CC(C)(C)C(=O)N1CCN(c2ccc(NC(=O)c3ccc([N+](=O)[O-])o3)cc2)CC1,10.2%
20,CC(CNC(=O)c1ccco1)NC(=O)c1ccco1 (stereo not drawn),14.6%
21,CC(NC(=O)c1ccc(NC(=O)CC2SC(N3CCCC3)=NC2=O)cc1)c1ccccc1 (stereo not drawn),12.6%
